# Where “and” joins values, the source holds several entries; their conditions need not be identical. Equal entries are not always repeated. The shares of active, inactive and inconclusive entries below differ from those in the screen. A potency beside an inconclusive call is a rough fit, not a confirmed value. Some structures have more than one record in an assay (separate samples or runs), and their calls can disagree. Calls of active or inactive are those of the source. Calls come from the whole dose curve; as a rule, active = well fitted inhibition curve with a large enough effect in the repeat runs; inconclusive = weak or mixed curves; inactive = no such curve, though single readings can be large or run the other way.
# Biological target: Cytochrome P450 2C19 (Homo sapiens) (UniProt P33261)
# Assay: Cytochrome P450 Family 2 Subfamily C Member 19 (CYP2C19) small molecule antagonists: luciferase reporter qHTS assay (AID 1671197); note: nearly all actives have a fitted effect of over 65% in size
# Details: P450-Glo CYP2C19 enzyme, luciferin luminescence, 1 h; series mostly up to 115 µM; activity change, negative = inhibition: at the top concentration
# In short: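 CYP2C19 P450-Glo, 1536-well qHTS. Cpd + enzyme/proluciferin substrate 10 min RT; + NADPH regen, 37C 1 h; stop with luciferin detection reagent, 20 min RT, luminescence (RLU). Pos ctrl ketoconazole.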
# % is set by controls: 0 for no effect and ±100 for the full control effect; potency is the fitted concentration of half-maximal effect; tags give direction and shape of the fitted curve.
# Sequence of UniProt P33261 (P33261 whole entry, looked up): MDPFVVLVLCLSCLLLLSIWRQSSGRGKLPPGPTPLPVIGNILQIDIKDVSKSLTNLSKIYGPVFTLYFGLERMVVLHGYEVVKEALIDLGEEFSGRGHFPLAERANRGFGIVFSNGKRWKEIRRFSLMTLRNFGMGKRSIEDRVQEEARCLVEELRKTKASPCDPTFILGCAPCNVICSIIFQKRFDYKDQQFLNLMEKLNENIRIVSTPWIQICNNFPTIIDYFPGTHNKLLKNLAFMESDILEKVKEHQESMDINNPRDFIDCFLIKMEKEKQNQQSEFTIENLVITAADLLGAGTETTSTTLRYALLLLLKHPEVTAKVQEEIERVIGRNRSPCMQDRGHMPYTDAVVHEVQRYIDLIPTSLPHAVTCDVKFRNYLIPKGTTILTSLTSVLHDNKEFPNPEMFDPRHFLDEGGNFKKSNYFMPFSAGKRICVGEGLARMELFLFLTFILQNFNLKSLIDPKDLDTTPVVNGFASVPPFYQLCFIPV
SMILES,Potency,"activity change, negative = inhibition"
CCCC/C=C/C=C\C=O,"inconclusive: 89.4 µM [inhibitor, single point]",
O=C(O)c1cc(C(=O)O)cc(S(=O)(=O)O)c1,"inactive and inconclusive: 79.6 µM [inhibitor, single point]",
CC(C(=O)O)c1ccc2c(c1)[nH]c1ccc(Cl)cc12 (configuration not stated),,inactive: -8.46% [at 52.9 µM]
CC1=C(/C=C/C(C)=C/C=C/C(C)=C/CO)C(C)(C)CCC1,active: 50.9 µM and active: 37.5 µM,
O=C1c2ccccc2C(=O)c2c(O)c(O)cc(O)c21,"inconclusive: 89.4 µM [inhibitor, single point]",

# Biological target: Cytochrome P450 2C9 (Homo sapiens) (UniProt P11712)
# Assay: Cytochrome P450 Family 2 Subfamily C Member 9 (CYP2C9) small molecule antagonists: luciferase reporter qHTS assay (AID 1671198); note: nearly all actives have a fitted effect of over 50% in size
# Details: P450-Glo CYP2C9 enzyme assay, luciferin luminescence; series mostly up to 115 µM; activity change, negative = inhibition: at the top concentration
# In short: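 Enzyme-substrate mix preincubated with compound 10 min at room temperature; reaction started with NADPH regeneration solution, 1 h 37C. Luminescent luciferin product read after 20 min detection reagent.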
# Sequence of UniProt P11712 (P11712 whole entry, looked up): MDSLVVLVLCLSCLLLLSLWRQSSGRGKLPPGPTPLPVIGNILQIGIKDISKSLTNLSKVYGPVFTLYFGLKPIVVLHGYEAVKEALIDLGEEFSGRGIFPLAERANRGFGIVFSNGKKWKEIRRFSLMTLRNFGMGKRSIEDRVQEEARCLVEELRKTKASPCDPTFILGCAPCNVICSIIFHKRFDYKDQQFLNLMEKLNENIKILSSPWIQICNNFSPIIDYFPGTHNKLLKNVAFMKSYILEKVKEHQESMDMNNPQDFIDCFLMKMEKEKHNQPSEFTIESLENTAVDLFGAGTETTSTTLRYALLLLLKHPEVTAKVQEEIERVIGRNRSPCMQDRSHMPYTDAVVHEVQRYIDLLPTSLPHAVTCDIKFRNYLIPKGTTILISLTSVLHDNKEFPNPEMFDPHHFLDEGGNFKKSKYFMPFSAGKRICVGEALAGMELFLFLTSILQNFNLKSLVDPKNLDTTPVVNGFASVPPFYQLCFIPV
SMILES,Potency,"activity change, negative = inhibition"
O=C1C(=O)c2ccccc2C(O)=C1C1CCC(c2ccc(Cl)cc2)CC1 (configuration not stated),"inconclusive: 6.17 µM [inhibitor, full curve, poor fit]",
Cc1cc(-c2ccc(N=Nc3cc(S(=O)(=O)O)c4ccccc4c3N)c(C)c2)ccc1N=Nc1cc(S(=O)(=O)O)c2ccccc2c1N,,inactive: 2.49%
CSCC[C@H](NC(=O)[C@H](Cc1c[nH]c2ccccc12)NC(=O)CCNC(=O)OC(C)(C)C)C(=O)N[C@@H](CC(=O)O)C(=O)N[C@@H](Cc1ccccc1)C(N)=O,,inactive: -6.17% [at 53 µM]
CC(C(=O)O)c1ccc2c(c1)[nH]c1ccc(Cl)cc12 (configuration not stated),"inconclusive: 30.9 µM [inhibitor, partial curve]",
CC1=C(/C=C/C(C)=C/C=C/C(C)=C/CO)C(C)(C)CCC1,active: 64.1 µM and active: 37.5 µM,
CCCCCCC(O)CCOC(C)=O (configuration not stated),"inconclusive: 149 µM [inhibitor, partial curve, poor fit]",
C=C[Si](OCCOC)(OCCOC)OCCOC,"inconclusive: 56.4 µM [inhibitor, partial curve, poor fit]",
CC(=O)OCC1=C(C(=O)O)N2C(=O)[C@@H](NC(=O)Cc3cccs3)[C@H]2SC1,"inconclusive: 17.4 µM [inhibitor, partial curve]",
CC1(C)O[C@@H]2C[C@H]3[C@@H]4C[C@H](F)C5=CC(=O)CC[C@]5(C)[C@H]4[C@@H](O)C[C@]3(C)[C@]2(C(=O)CO)O1,"inconclusive: 63.3 µM [inhibitor, partial curve]",
COC(=O)c1ccc(C(=O)OC)cc1,active: 40.5 µM and inactive,
OCCNCCO,"inconclusive: 71 µM [inhibitor, partial curve] and inconclusive: 79.6 µM [inhibitor, partial curve, poor fit]",
CCC(Cl)CC(Cl)C(Cl)C(Cl)C(Cl)C(C)Cl (configuration not stated),active: 1.38 µM,

# Source: PubChem BioAssay (Tox21)
